Source: patent US9730904B2, “Prophylactic/ameliorating agent for adult diseases comprising 5-aminolevulinic acid, derivative of 5-aminolevulinic acid, or salt of 5-aminolevulinic acid or the derivative of 5-aminolevulinic acid as active ingredient” (priority 2008, dated 2017)

How the values were obtained:
healthy subjects [1] = experiment: Safety test on healthy subjects (Example 19); format: in vivo, human; details: for HbA1c change / blood sugar level change: 4 weeks; for HbA1c change: FIG. 9; for blood sugar level change: FIG. 10
Experimental: As a safety test, healthy subjects started to ingest 25 mg of ALA phosphate and iron citrate in an amount of 0.5-fold in molar ratio of ALA per day, which ingestion was continued for 4 weeks. Blood was tested every two weeks including before ingestion, and after termination of ingestion. […] Further, the stratified results of healthy subjects which were divided into a group in which HbA1c before ingestion was higher than 4.8, and a group in which HbA1c before ingestion was 4.8 or less are observed in FIG. 9. […] Similarly, change of blood sugar level when the subjects were divided into a group with fasting blood sugar level of 90 or more, and a group with a level of less than 90 is shown in FIG. 10.

[2] = Symptom case reports after ingestion or application (Examples 3, 5-12); details: person; for migraine: 1 capsule (5 mg + 23 mg sodium ferrous citrate) per day; for physical and mental feeling: from the day following the ingestion
[3] = Biochemical values after ingestion of ALA phosphate/sodium ferrous citrate capsules, individual males (Examples 1, 2); format: in vivo, human; details: person
Experimental: A person ingested 1 capsule comprising 5 mg of aminolevulinic acid phosphate and 2.87 mg of sodium ferrous citrate per day, and improvement of the following biochemical values was observed 1 month after.

[4] = system: borderline diabetes patient; experiment: HbA1c in a borderline diabetes patient ingesting the capsule (Examples 4, 16); format: in vivo, human
Experimental: A person being a borderline diabetes patient ingested 1 capsule comprising 5 mg of aminolevulinic acid phosphate and 2.87 mg of sodium ferrous citrate per day, and improvement of the following biochemical values was observed 1 month, 2 months, and 3 months after initiating ingestion.
The patient of Example 4 continued ingestion under the same conditions.

healthy subjects [5] = experiment: Double-blind test, 30 men and women, biochemical examination of blood (Example 13); format: in vivo, human
Experimental: After obtaining informed consent before the initiation of the test, 30 men and women of age 22 to 63 participated in a double-blind test, and ingested a soft capsule comprising ALA phosphate, and ALA phosphate and ferrous citrate. Groups I, II, and III all ingested 1 capsule per day continuously for 4 weeks. The capsule of Group I comprised 5 mg of ALA phosphate; the capsule of Group II comprised 15 mg of ALA phosphate; and the capsule of Group III comprised 5 mg of ALA phosphate and 2.87 mg of ferrous citrate. Biochemical examination of blood was performed 2 weeks and 4 weeks after initiating ingestion, and 2 weeks after the end of the test.
Thus, the effect of prevention/amelioration of the present invention was shown.

type II diabetes patient = experiment: Fasting blood sugar / HbA1c in type II diabetes patients (Examples 15, 17, 18); format: in vivo, human
Experimental: A type II diabetes patient was having insulin treatment, and was administered insulin in an amount of 10 units in the morning, 5 units at noon, and 10 units in the evening.
A person suffering from type II diabetes, had been living being careful of their eating habit and taking exercises under the guidance of their doctor, while HbA1c increased gradually. On Nov. 7, 2008, they started to ingest 50 mg of ALA phosphate and iron citrate in an amount of 0.5-fold in molar ratio of ALA per day. […] Meanwhile, the fasting blood sugar level on Nov.
A person having type II diabetes started to digest 15 mg of ALA phosphate and iron citrate in an amount of 0.5-fold in molar ratio of ALA per day, interrupted the ingestion once, and then restarted the ingestion. […] HbA1c is ameliorated by ingestion.

KK-Ay mice = experiment: Type II diabetes mouse models, ALA and iron administration (Example 14); details: 10 mg ALA + 92 mg sodium ferrous citrate, or 30 mg ALA + 276 mg, per 1 kg of body weight
[6] = system: borderline diabetes patients; experiment: Pilot study in diabetes patients by 5-ALA (Example 20, Table 1); format: in vivo, human
Source text: HbA1c was ameliorated in all of 6 patients, showing that the present invention is highly probable.

[7] = 1 capsule (5 mg + 2.87 mg sodium ferrous citrate) per day, from 2 days after initiating ingestion
[8] = 1 capsule (50 mg + 57.4 mg sodium ferrous citrate) per day, after 3 months
[9] = 2 capsules (each 5 mg + 23 mg sodium ferrous citrate) per day, from 1 week after initiating ingestion
[10] = patient of Example 4, same conditions continued, before initiation 7.4
[11] = person, 1 capsule (5 mg + 2.87 mg sodium ferrous citrate) per day, before initiation 7.4
[12] = Group II: 15 mg capsule per day, in 4 weeks
[13] = Group III: 5 mg + 2.87 mg ferrous citrate capsule per day, in 2 weeks
[14] = person, type II diabetes, 15 mg + iron citrate 0.5-fold molar per day, FIG. 8

NCC(=O)CCC(=O)O.O=P(O)(O)O [aminolevulinic acid phosphate, 5-aminolevulinic acid phosphate]
blood test, average levels (healthy subjects [1]; 25 mg + iron citrate 0.5-fold molar per day for 4 weeks): No significant change | HbA1c change (healthy subjects [1]; group with HbA1c before ingestion 4.8 or less, 25 mg + iron citrate per day): rather increasing tendency | HbA1c change (healthy subjects [1]; group with HbA1c before ingestion higher than 4.8, 25 mg + iron citrate per day): some decreasing tendency | blood sugar level change (healthy subjects [1]; group with fasting blood sugar level of 90 or more, 25 mg + iron citrate per day): mild decrease | blood sugar level change (healthy subjects [1]; group with fasting blood sugar level of less than 90, 25 mg + iron citrate per day): almost no change | hypertension ([2]; 1 capsule (5 mg + 2.87 mg sodium ferrous citrate) per day): ameliorated | shoulder discomfort ([2]; 1 capsule (5 mg + 2.87 mg sodium ferrous citrate) per day, from 1 week after initiating ingestion): Improvement | constipation [2, 7]: not observed | sensitivity to cold temperature [2, 7]: ameliorated | migraine ([2]; after 1 week of ingestion): completely cured | migraine ([2]; from the day after initiating ingestion): amelioration | body weight decrease [2, 8]: 5 kg | gray hair and crimples [2, 8]: ameliorated | body weight ([2]; 1 capsule (50 mg + 57.4 mg sodium ferrous citrate) per day, after 3 months, before 79 kg): 74 kg | physical and mental feeling ([2]; 1 capsule (50 mg + 57.4 mg sodium ferrous citrate) per day): felt fulfilled physically and mentally | blood pressure after stopping antihypertensives ([2]; 1 capsule per day, antihypertensives stopped 1 month after): maintained a normal level | shoulder discomfort ([2]; 1 wt % each with DTPA iron applied once a day to the sites, in a week): gone | sexual intercourse ([2]; 2 capsules (each 5 mg + 2.87 mg sodium ferrous citrate) per day, the next day of ingestion): for the first time in a year | erection ([2]; 2 capsules (each 5 mg + 2.87 mg sodium ferrous citrate) per day, the next morning): observed | physical strength and facial rejuvenation [2, 9]: felt improvement | symptoms of menopausal disorder such as hot-flash or frustration [2, 9]: gone | physical and mental feeling ([2]; 2 capsules (each 5 mg + 23 mg sodium ferrous citrate) per day): felt fulfilled physically and mentally | sexual intercourse ([2]; 2 capsules (each 5 mg + 23 mg sodium ferrous citrate) per day, three days after initiating ingestion): for the first time in half a year | HbA1c ([3]; 1 capsule (5 mg + 2.87 mg sodium ferrous citrate) each morning and afternoon, after 2 weeks, before 6.2, in %): 6.2 → 5.9 | GPT ([3]; 1 capsule (5 mg + 2.87 mg sodium ferrous citrate) each morning and afternoon, after 2 weeks, before 17): 17 → 15 | GOT ([3]; 1 capsule (5 mg + 2.87 mg sodium ferrous citrate) each morning and afternoon, after 2 weeks, before 19): 19 → 19 | γ-GTP ([3]; 1 capsule (5 mg + 2.87 mg sodium ferrous citrate) each morning and afternoon, after 2 weeks, before 60): 60 → 48 | TG ([3]; 1 capsule (5 mg + 2.87 mg sodium ferrous citrate) each morning and afternoon, after 2 weeks, before 314, in mg/dL): 314 → 132 | HDL ([3]; 1 capsule (5 mg + 2.87 mg sodium ferrous citrate) per day, 1 month after, before 65, in mg/dL): 65 → 58 | LDL ([3]; 1 capsule (5 mg + 2.87 mg sodium ferrous citrate) per day, 1 month after, before 192, in mg/dL): 192 → 173 | TC ([3]; 1 capsule (5 mg + 2.87 mg sodium ferrous citrate) per day, 1 month after, before 264, in mg/dL): 264 → 260 | diabetes status ([4]; patient of Example 4, at eight months): completely free of diabetes | HbA1c eight months later [4, 10]: 5.2 | HbA1c five months after the initiation of administration [4, 10]: 5.9 | HbAlc After 1 month [4, 11]: 7.2 | HbAlc After 2 months [4, 11]: 6.9 | HbAlc After 3 months [4, 11]: 6.8 | HDL-cholesterol (healthy subjects [5]; Group I: 5 mg capsule per day, at 4 weeks, before 64.6±17.3): 60.9 ± 15.8 mg/dL | HDL-cholesterol decrease (healthy subjects [5]; Group I: 5 mg capsule per day, in 4 weeks): 3.7 ± 4.9 mg/dL | ALP (healthy subjects [5]; Group II: 15 mg capsule per day, at 2 weeks, before 195.2±74.7): 177.2±55.2 U/L | Creatinine (healthy subjects [5]; Group II: 15 mg capsule per day, at 4 weeks, before 0.701±0.134): 0.661 ± 0.109 mg/dL | Total proteins (healthy subjects [5]; Group II: 15 mg capsule per day, at 4 weeks, before 7.28±0.48): 6.99 ± 0.47 g/dL | ALP decrease (healthy subjects [5]; Group II: 15 mg capsule per day, in 2 weeks): 18.0±23.2 U/L | Creatinine decrease (healthy subjects [5]; [12]): 0.040 ± 0.037 mg/dL | Total proteins decrease (healthy subjects [5]; [12]): 0.29 ± 0.22 g/dL | Na increase (healthy subjects [5]; Group III: 5 mg + 2.87 mg ferrous citrate capsule per day, 2 weeks after the end of the test): 0.7±0.7 mEq/L | Na (healthy subjects [5]; Group III: 5 mg + 2.87 mg ferrous citrate capsule per day, 2 weeks after the end of the test, before 140.4±1.6): 141.1±1.5 mEq/L | Albumin (healthy subjects [5]; Group III: 5 mg + 2.87 mg ferrous citrate capsule per day, at 2 weeks, before 4.43±0.26): 4.31 ± 0.26 g/dL | HDL-cholesterol (healthy subjects [5]; Group III: 5 mg + 2.87 mg ferrous citrate capsule per day, at 2 weeks, before 67.8±12.4): 65.2 ± 11.7 mg/dL | LDL-cholesterol (healthy subjects [5]; Group III: 5 mg + 2.87 mg ferrous citrate capsule per day, at 2 weeks, before 122.5±20.6): 111.8 ± 25.9 mg/dL | Total cholesterol (healthy subjects [5]; Group III: 5 mg + 2.87 mg ferrous citrate capsule per day, at 2 weeks, before 204.1±21.0): 190.9 ± 30.3 mg/dL | Albumin decrease (healthy subjects [5]; [13]): 0.12 ± 0.11 g/dL | HDL-cholesterol decrease (healthy subjects [5]; [13]): 2.6 ± 2.8 mg/dL | LDL-cholesterol decrease (healthy subjects [5]; [13]): 10.7 ± 7.8 mg/dL | Total cholesterol decrease (healthy subjects [5]; [13]): 13.2 ± 15.0 mg/dL | HDL-cholesterol decrease (healthy subjects [5]; listed under Group III (5 mg + 2.87 mg ferrous citrate), 2 weeks after the end of the test): 2.8 ± 3.7 mg/dL | HDL-cholesterol (healthy subjects [5]; listed under Group III (5 mg + 2.87 mg ferrous citrate), 2 weeks after the end of the test, before 67.8±12.4): 65.0 ± 11.4 mg/dL | HbA1c during ingestion (type II diabetes patient; [14]): ameliorated | HbA1c when the ingestion was interrupted (type II diabetes patient; [14]): increased | HbA1c (type II diabetes patient; person, type II diabetes, 50 mg + iron citrate 0.5-fold molar per day, FIG. 7): rapid improvement | fasting blood sugar level (type II diabetes patient; person, type II diabetes, 50 mg + iron citrate 0.5-fold molar per day, May 9, 2009 (start Nov. 7, 2008: 195 mg/dl)): 107 mg/dL | fasting blood sugar, average decrease (type II diabetes patient; type II diabetes patient on insulin, 25 mg + iron citrate 0.5-fold molar per day, in 1 month, FIG. 5 auxiliary line): about 15 mg/dl

NCC(=O)CCC(=O)O [ALA, 5-aminolevulinic acid]
blood sugar levels (KK-Ay mice; FIG. 1): decreased | sugar tolerance ability (glucose tolerance test) (KK-Ay mice; FIG. 2): increased | insulin secretion (KK-Ay mice; FIG. 4): ameliorated | HbA1c(%) after ([6]; 10 mg/day, 0.5 month, before 6.2): 5.9% | HbA1c(%) after ([6]; 10 mg/day, 2 month, before 6.7): 5.7% | HbA1c(%) after ([6]; 10 mg/day, 8 month, before 7.4): 5.2% | HbA1c(%) after ([6]; 50 mg/day, 3 month, before 6.1): 5.7%
